Assay results as given in PMC4336329 (PLoS ONE, 2015).
Hit rate of the full screen: of about 310,000 compounds, about 14,000 (4.5%) showed an effect of 50% or more. Effects have a minus sign here. The list shows a part of the results.

Biological target: human ether-à-go-go-related gene (hERG) potassium channel (human, UniProt Q12809)
Experiment: primary screen, population patch clamp on CHO cells stably expressing hERG
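Further: peak tail current of the secondary pulse compared with the same well before compound.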

human ether-à-go-go-related gene (hERG) potassium channel, sequence (Q12809 whole entry, looked up): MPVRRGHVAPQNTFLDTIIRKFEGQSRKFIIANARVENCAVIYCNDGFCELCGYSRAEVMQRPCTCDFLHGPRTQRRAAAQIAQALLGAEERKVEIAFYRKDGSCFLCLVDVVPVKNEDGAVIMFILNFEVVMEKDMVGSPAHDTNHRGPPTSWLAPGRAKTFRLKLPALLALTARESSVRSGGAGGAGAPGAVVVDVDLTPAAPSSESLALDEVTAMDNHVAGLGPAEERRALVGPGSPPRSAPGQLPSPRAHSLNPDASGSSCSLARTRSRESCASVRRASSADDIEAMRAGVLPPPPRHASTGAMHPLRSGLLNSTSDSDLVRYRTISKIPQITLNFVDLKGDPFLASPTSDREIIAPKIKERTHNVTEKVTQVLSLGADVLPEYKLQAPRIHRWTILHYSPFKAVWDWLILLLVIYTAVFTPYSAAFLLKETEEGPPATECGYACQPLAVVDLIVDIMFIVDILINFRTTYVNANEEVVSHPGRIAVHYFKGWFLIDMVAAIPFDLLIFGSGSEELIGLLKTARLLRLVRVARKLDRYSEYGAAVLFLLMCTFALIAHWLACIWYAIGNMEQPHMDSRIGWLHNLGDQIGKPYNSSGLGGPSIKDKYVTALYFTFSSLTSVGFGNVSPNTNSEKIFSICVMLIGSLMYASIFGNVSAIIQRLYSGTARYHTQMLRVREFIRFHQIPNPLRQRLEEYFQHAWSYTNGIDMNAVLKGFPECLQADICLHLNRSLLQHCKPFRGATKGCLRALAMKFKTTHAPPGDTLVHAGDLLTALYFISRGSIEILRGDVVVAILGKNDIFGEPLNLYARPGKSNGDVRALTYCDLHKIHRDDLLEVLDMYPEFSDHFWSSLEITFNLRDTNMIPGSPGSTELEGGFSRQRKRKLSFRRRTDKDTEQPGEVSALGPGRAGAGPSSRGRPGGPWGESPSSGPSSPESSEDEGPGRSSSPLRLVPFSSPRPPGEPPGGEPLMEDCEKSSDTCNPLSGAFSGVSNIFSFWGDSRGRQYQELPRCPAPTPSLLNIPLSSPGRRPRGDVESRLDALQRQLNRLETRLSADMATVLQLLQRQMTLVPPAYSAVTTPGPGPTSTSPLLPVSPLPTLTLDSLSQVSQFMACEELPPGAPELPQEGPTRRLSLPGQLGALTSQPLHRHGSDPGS

Structure (SMILES) | hERG current change (%, negative = inhibition) at 10uM [%]
Cc1c(CC(=O)NCC(=O)NCC(=O)O)c(=O)oc2c(C)c3oc4c(c3cc12)CCCC4 | 11.3
O=C(COC(=O)c1ccc([N+](=O)[O-])s1)NC(=O)NCc1ccccc1 | -37.8
O=C(Nc1ccccc1)N(Cc1cccnc1)Cc1ccco1 | -32.9
COc1cc2c(cc1OC)C(C(C)C)=NC(C)(C)C2.Cl | -1.99
COc1ccc(N2CCCn3c2nc2c3c(=O)n(CCCc3ccccc3)c(=O)n2C)cc1 | -25.1
Cc1ccc(-c2nc3ccccc3c(=O)n2-c2c(C)n(C)n(-c3ccccc3)c2=O)cc1 | -6.04
Cc1cccc(OCCCC(=O)NNC(=O)c2ccccn2)c1 | -15.6
C/C(=N\NC(=O)COc1ccc(C)cc1Br)c1cc([N+](=O)[O-])cs1 | -14.8
CCC(=O)NCCNC(=O)c1c(SC)nsc1SC | 4.67
O=C(O)COc1ccc2c(-c3ccccc3)cc(=O)oc2c1 | -8.99
CCn1c(SCC#N)nc2ccccc2c1=O | 2.7
COCc1cc(=O)[nH]c(SCCS(=O)(=O)c2ccc(Cl)cc2Cl)n1 | 13.1
O=C(O)CN=C(NS(=O)(=O)c1ccccc1)c1ccccc1 | -5.93
Cc1ccc(-c2cc(C(=O)N3CCN(C4CCS(=O)(=O)C4)CC3)c3ccccc3n2)cc1 (stereo not drawn) | -60.7
O=C(Nc1ccc(Cl)cc1)C1CC(=O)n2c(nc3ccccc32)N1 (stereo not drawn) | 8.83
COc1ccc(CCN2CCCC(CN(C)C(=O)c3ccoc3C)C2)cc1 (stereo not drawn) | 13.4
Cc1cccc(OCC(=O)Nc2ccc3c(c2)nc(CCN2CCCCC2)n3C)c1 | -77.2
COc1ccc(Cn2c(C(F)(F)F)ccc(C(N)=O)c2=O)cc1 | 1.62
CC1(C)CC(=O)C2=C(C1)c1c(ccc3ccccc13)NC2c1ccco1 (stereo not drawn) | 14.1
CCOc1ncccc1C(=O)Nc1nc(C(C)(C)C)cs1 | 11.4
Cc1c(C)c2ccc(OS(C)(=O)=O)c(C)c2oc1=O | 3.68
O=C(COc1ccc(Br)cc1)NCCCn1ccnc1 | -20.1
COCCCN1C(=O)C(=O)/C(=C(/O)c2ccc(S(=O)(=O)N3CCCCC3)cc2)C1c1ccc(O)c(OC)c1 (stereo not drawn) | -7.86

Structure (SMILES) | hERG current change (%, negative = inhibition) at 10uM [%]
COc1ccc(NC(=O)c2cc3c(=O)n4ccccc4nc3n2C)cc1OC | 13.7
CCc1cc2c(=O)c(-c3nc4ccccc4n3C)c(C)oc2c(CN2CCCCC2)c1O | -1.66
O=C(N/N=C1\CCS(=O)(=O)c2ccc(F)cc21)c1ccc(O)cc1 | 16.2
O=S(=O)(/N=C(/c1ccccc1)N1CCCCC1)c1ccccc1 | 0.361
COc1ccc2c(c1OC)C(=O)N1C2SC(C)(C)[C@H]1C(=O)NC1CC1 (stereo partly drawn) | 17.8
Cc1ccc2c(c1)N=C(c1ccc(F)cc1)CO2 | 4.92
Cc1ccc(S(=O)(=O)N2CCOCC2)cc1NC(=O)COc1ccc(-c2nnco2)cc1 | -25.1
COc1ccccc1N(O)C1CC(=O)N(c2ccc(F)cc2)C1=O (stereo not drawn) | 5.71
Cc1nn(Cc2c(F)c(F)c(F)c(F)c2F)c(C)c1NC(=O)c1ccnn1C | -20.6
CCOC(=O)N1CCN(C(=O)C2CCN(c3ncnc4c3sc3cccc(F)c34)CC2)CC1 | -59.9
Cl.O=C(COc1ccc(Br)cc1)NCCN1CCCC1 | -43.8
CCC(=Nc1ccccc1N)c1c(O)[nH]c(=O)[nH]c1=O | 18.5
O=C(Cn1nc2ccccc2n1)N/N=C/c1ccc(F)cc1 | -2.6
CC1CC(Nc2ccccc2)c2ccccc2N1C(=O)c1cccnc1 (stereo not drawn) | -2.36
Cc1nc2ccsc2c(=O)n1-c1cccc(Cl)c1 | 14.4
CCOC(=O)NC1(Nc2cccc(Cl)c2)Oc2ccccc2O1 | 6.82
CCOCCCNC(=O)C1CC(=O)N(CCc2ccc(C)cc2)C1 (stereo not drawn) | 20.7
CCOC(=O)C(=O)Cc1nc2ccccc2s1 | 0.765
COc1ccc(S(=O)(=O)N2CCc3cc4c(cc3C2C)OCCCO4)cc1 (stereo not drawn) | 3.79
CCC(C)NS(=O)(=O)c1ccc(OCC(=O)NCc2ccccn2)cc1 (stereo not drawn) | -11.3
O=C(NCCc1cccs1)c1ccc(CS(=O)Cc2ccc(Cl)cc2)o1 (stereo not drawn) | -20.4
CCOC(=O)N1CCC(NC(=O)c2ccc3c(c2)N(Cc2ccccc2)CCS3)CC1 | 10.6
